In all, about 150,000 compounds went through this assay and about 540 (0.36%) showed an effect of 50% or more. This is one part of the list.
tested on: Plasmodium falciparum; assay: Primary screen in NF54 nanoGlo assay, in single point, at 2uM, 72h; a lower Z score goes with more inhibition; assay type: functional, Erythrocyte; details: timepoint 72 hour

Going from `Cc1noc(C)c1Cc1ccc(C(=O)N2CC3(C[C@H](CC(=O)N4CCOCC4)CO3)C2)o1` to `Cc1ccc(C(=O)N2CCC[C@]3(C4=CCOCC4)COCC[C@@H]23)c(O)c1`, the “% Inhibition” value falls from 4% to -3%.

First: Cc1cnc(C(=O)NC2C[C@H]3CC[C@@H](C2)N3S(=O)(=O)c2ccccc2)cn1 (some centres undefined)
Second: O=C(N[C@H]1CN(C(=O)COc2ccccc2)C[C@@H]1C1CC1)c1cnccn1
The “% Inhibition” value of the first is higher: -7% for the first, -14% for the second.

Going from `CN1CCN(c2ncccc2CNC(=O)NC2(C)Cc3ccccc3C2)CC1` to `CN1CCN(c2nc(N3CCCCC3)nc3c2CN(C(=O)COc2ccccc2)CC3)CC1`, the “% Inhibition” value falls from 10% to 0%.

Going from `CCOc1ccc(NC(=O)CCc2c(C)nn(-c3nc(C)cc(=O)[nH]3)c2C)cc1` to `COc1ccc(-c2cc(C(F)(F)F)n(-c3cc(C)nc(N)n3)n2)cc1`, the “% Inhibition” value falls from 4% to -8%.

First: CCN1C[C@@H](n2cc(COCc3ccccc3)nn2)CC1=O
Second: CCn1nc(C(=O)N2C[C@@H]3CC[C@H]2CN(CCCc2ccccc2)C3)cc1C
The “% Inhibition” value of the first is lower: -14% for the first, -11% for the second.

Compared with `C[C@H]1C(=O)NCCN1C(=O)c1coc(COc2cccc(C(F)(F)F)c2)n1`, `Cc1ccc(F)c(N2CC[C@@H](C(=O)Nc3ccc(C(F)(F)F)cc3)C2=O)c1` is lower in “% Inhibition” value: -8% for the first, -9% for the second.

First: N#Cc1cnc(N(CC(=O)N2CCCC2)C[C@H]2CCCO2)c(Cl)c1
Second: O=C(C[C@@H]1C=CCC1)N1CCCCCCC1
The “% Inhibition” value of the first is lower: 1% for the first, 6% for the second.

Compared with `CO[C@@]1(C(=O)NCc2c(Cl)cccc2-n2ccnc2)CCOC1`, `Cc1onc(NS(=O)(=O)c2cccc3c2OCCC3)c1Cl` is lower in “% Inhibition” value: -5% for the first, -7% for the second.

Going from `Cn1cc(Br)c(C(=O)NCCn2cccn2)cc1=O` to `CCCCN1CCN(C(=O)c2cccc3cnccc23)[C@H]2CS(=O)(=O)C[C@H]21`, the “% Inhibition” value falls from -8% to -13%.

Compared with `O=C(CCC1CCCC1)N1CCN2CCS(=O)(=O)N(C3CC3)C(=O)[C@@H]2C1`, `CC(C)(C)OC(=O)N1CCC2C(CCCN2C(=O)NCCC#N)C1` (centres undefined) is higher in “% Inhibition” value: -9% for the first, 7% for the second.

Compared with `Cc1nc2ccc(NC(=O)N3CCCS(=O)(=O)C[C@@H]3C)cn2n1`, `Cc1cnc(CN2CC3(CCC2=O)CCN(C(=O)Nc2ccccc2)CC3)cn1` is higher in “% Inhibition” value: -9% for the first, 2% for the second.

Going from `COc1ccc(S(=O)(=O)N(CCc2ccccc2)c2ccccc2)cc1[C@@]1(C)NC(=O)NC1=O` to `COc1ccc(S(=O)(=O)N(Cc2ccco2)Cc2c(-c3ccccc3)nn(C)c2Oc2ccccc2)cc1`, the “% Inhibition” value rises from -32% to -1%.

Going from `O=C1CNc2ncc(Br)cc2N1` to `CS(=O)(=O)Cc1nc(-c2ccc3[nH]c(=O)[nH]c3c2)cs1`, the “% Inhibition” value rises from -6% to 4%.

Compared with `Cc1nc2ccccc2n1C(=O)COc1ccc(Cl)cc1`, `CCN(Cc1nc(C)no1)C(=O)N[C@H]1CC(=O)N(c2ccc(Cl)cc2)C1` is lower in “% Inhibition” value: -1% for the first, -13% for the second.

First: CC(=O)OC1CS(=O)(=O)CC1N(C(C)=O)c1ccc(Cl)cc1 (centres undefined)
Second: COc1ccc(Cl)cc1NC(=O)[C@@H](NC(C)=O)C(C)C
The “% Inhibition” value of the first is lower: 4% for the first, 11% for the second.

Going from `C=CCN(CC=C)C(=O)c1ccc(OCC)c(OCC)c1` to `CCOC(=O)c1c(C)n[nH]c1NCc1ccccc1`, the “% Inhibition” value rises from -6% to 4%.

First: Cc1cc(C)c(CN(C)C2C3CCOC3C2(C)C)c(C)c1 (centres undefined)
Second: Cc1cccc(CN(CC2CCN(C3Cc4ccccc4C3)CC2)C[C@H]2CCCO2)n1
The “% Inhibition” value of the first is lower: -9% for the first, -1% for the second.

Going from `COc1ccc(F)c(CN2CCC[C@@]3(CCN(CCn4cc(Cl)cn4)C3)C2)c1` to `CN1CCC(N(CCc2ccccc2)S(=O)(=O)c2cnn(C)c2)CC1`, the “% Inhibition” value falls from 6% to -4%.

Going from `Cn1nc(C(=O)NCc2n[nH]c3c2CCC3)c2ccccc2c1=O` to `CNC(=O)c1cc2cc(N3C(=O)N[C@H](C)C3=O)ccc2[nH]1`, the “% Inhibition” value rises from -8% to 2%.

Going from `CC1CCN(c2ncnc(Oc3ccc(F)cc3)c2N)CC1` to `Cc1c(C(=O)[C@H](C#N)c2nnc(N3CCOCC3)n2-c2ccccc2)nnn1-c1ccc(F)cc1`, the “% Inhibition” value falls from -6% to -7%.

First: O=C(c1ccco1)N1CCN(Cc2cnc3n2CCOC3)CC1
Second: CN(C)C(=O)N1CC[C@@]2(O)CCN(Cc3ccc(C4CCCC4)s3)C[C@H]2C1
The “% Inhibition” value of the first is higher: -2% for the first, -11% for the second.

Compared with `CCCc1nc(C)c(CNC(=O)Nc2cccc(CN)c2)s1`, `CCC(CC)NC(=O)[C@H]1CC(=O)N(CCc2c[nH]c3ccc(C)cc23)C1` is lower in “% Inhibition” value: -3% for the first, -11% for the second.

First: FC(F)(F)c1ccc(N[C@H]2CCc3[nH]ncc3C2)nc1
Second: O=C(CC(F)(F)F)N1CCC[C@H](Oc2ncccn2)C1
The “% Inhibition” value of the first is lower: -18% for the first, 14% for the second.

First: Nc1cc(-c2cc3ccccc3o2)ccn1
Second: CC1CC(NC(=O)c2ccc(Oc3ccccc3)cc2)CC(C)(C)C1 (centres undefined)
The “% Inhibition” value of the first is higher: 3% for the first, -9% for the second.

First: CNC(=O)c1cc(Cl)cc(F)c1N
Second: Cc1cccc(C(=O)Nc2ccccc2C(=O)OCc2ccc(S(=O)(=O)c3ccccc3)cc2)c1
The “% Inhibition” value of the first is lower: -6% for the first, -3% for the second.

First: O=C(CCCc1ccccc1)[C@H]1CCCNC1
Second: Cc1cc(-n2nc(C)cc2NS(=O)(=O)c2cccc(C(C)C)c2)nc(C)n1
The “% Inhibition” value of the first is lower: 5% for the first, 29% for the second.

Going from `Cc1noc(C)c1Cc1ccc(C(=O)N2CC3(C[C@H](CC(=O)N4CCOCC4)CO3)C2)o1` to `Cc1ccc(C(=O)N2CCC[C@]3(C4=CCOCC4)COCC[C@@H]23)c(O)c1`, the Z score rises from -0.55 to 0.59.

Compared with `Cc1cnc(C(=O)NC2C[C@H]3CC[C@@H](C2)N3S(=O)(=O)c2ccccc2)cn1` (some centres undefined), `O=C(N[C@H]1CN(C(=O)COc2ccccc2)C[C@@H]1C1CC1)c1cnccn1` is higher in Z score: 1.38 for the first, 2.07 for the second.

First: CN1CCN(c2ncccc2CNC(=O)NC2(C)Cc3ccccc3C2)CC1
Second: CN1CCN(c2nc(N3CCCCC3)nc3c2CN(C(=O)COc2ccccc2)CC3)CC1
The Z score of the first is lower: -1.23 for the first, 0.02 for the second.

Going from `CCOc1ccc(NC(=O)CCc2c(C)nn(-c3nc(C)cc(=O)[nH]3)c2C)cc1` to `COc1ccc(-c2cc(C(F)(F)F)n(-c3cc(C)nc(N)n3)n2)cc1`, the Z score rises from -0.72 to 1.24.

Compared with `CCN1C[C@@H](n2cc(COCc3ccccc3)nn2)CC1=O`, `CCn1nc(C(=O)N2C[C@@H]3CC[C@H]2CN(CCCc2ccccc2)C3)cc1C` is higher in Z score: 1.2 for the first, 2.12 for the second.

Going from `C[C@H]1C(=O)NCCN1C(=O)c1coc(COc2cccc(C(F)(F)F)c2)n1` to `Cc1ccc(F)c(N2CC[C@@H](C(=O)Nc3ccc(C(F)(F)F)cc3)C2=O)c1`, the Z score rises from 1.3 to 1.34.

First: N#Cc1cnc(N(CC(=O)N2CCCC2)C[C@H]2CCCO2)c(Cl)c1
Second: O=C(C[C@@H]1C=CCC1)N1CCCCCCC1
The Z score of the first is higher: -0.1 for the first, -0.81 for the second.

Compared with `CO[C@@]1(C(=O)NCc2c(Cl)cccc2-n2ccnc2)CCOC1`, `Cc1onc(NS(=O)(=O)c2cccc3c2OCCC3)c1Cl` is higher in Z score: 0.72 for the first, 1.53 for the second.

Going from `Cn1cc(Br)c(C(=O)NCCn2cccn2)cc1=O` to `CCCCN1CCN(C(=O)c2cccc3cnccc23)[C@H]2CS(=O)(=O)C[C@H]21`, the Z score rises from 1.16 to 1.55.

Going from `O=C(CCC1CCCC1)N1CCN2CCS(=O)(=O)N(C3CC3)C(=O)[C@@H]2C1` to `CC(C)(C)OC(=O)N1CCC2C(CCCN2C(=O)NCCC#N)C1` (centres undefined), the Z score falls from 1.52 to -0.98.

Compared with `Cc1nc2ccc(NC(=O)N3CCCS(=O)(=O)C[C@@H]3C)cn2n1`, `Cc1cnc(CN2CC3(CCC2=O)CCN(C(=O)Nc2ccccc2)CC3)cn1` is lower in Z score: 1.09 for the first, -0.31 for the second.

Going from `COc1ccc(S(=O)(=O)N(CCc2ccccc2)c2ccccc2)cc1[C@@]1(C)NC(=O)NC1=O` to `COc1ccc(S(=O)(=O)N(Cc2ccco2)Cc2c(-c3ccccc3)nn(C)c2Oc2ccccc2)cc1`, the Z score falls from 4.28 to 0.19.

First: O=C1CNc2ncc(Br)cc2N1
Second: CS(=O)(=O)Cc1nc(-c2ccc3[nH]c(=O)[nH]c3c2)cs1
The Z score of the first is higher: 0.92 for the first, -0.68 for the second.

Going from `Cc1nc2ccccc2n1C(=O)COc1ccc(Cl)cc1` to `CCN(Cc1nc(C)no1)C(=O)N[C@H]1CC(=O)N(c2ccc(Cl)cc2)C1`, the Z score rises from 0.09 to 2.51.

Going from `CC(=O)OC1CS(=O)(=O)CC1N(C(C)=O)c1ccc(Cl)cc1` (centres undefined) to `COc1ccc(Cl)cc1NC(=O)[C@@H](NC(C)=O)C(C)C`, the Z score falls from -0.59 to -1.01.

Going from `C=CCN(CC=C)C(=O)c1ccc(OCC)c(OCC)c1` to `CCOC(=O)c1c(C)n[nH]c1NCc1ccccc1`, the Z score falls from 0.67 to -0.48.

First: Cc1cc(C)c(CN(C)C2C3CCOC3C2(C)C)c(C)c1 (centres undefined)
Second: Cc1cccc(CN(CC2CCN(C3Cc4ccccc4C3)CC2)C[C@H]2CCCO2)n1
The Z score of the first is higher: 1.19 for the first, 0.18 for the second.

Going from `COc1ccc(F)c(CN2CCC[C@@]3(CCN(CCn4cc(Cl)cn4)C3)C2)c1` to `CN1CCC(N(CCc2ccccc2)S(=O)(=O)c2cnn(C)c2)CC1`, the Z score rises from -0.59 to 0.54.

Going from `Cn1nc(C(=O)NCc2n[nH]c3c2CCC3)c2ccccc2c1=O` to `CNC(=O)c1cc2cc(N3C(=O)N[C@H](C)C3=O)ccc2[nH]1`, the Z score falls from 1.56 to -0.47.

Compared with `CC1CCN(c2ncnc(Oc3ccc(F)cc3)c2N)CC1`, `Cc1c(C(=O)[C@H](C#N)c2nnc(N3CCOCC3)n2-c2ccccc2)nnn1-c1ccc(F)cc1` is higher in Z score: 0.86 for the first, 1.18 for the second.

First: O=C(c1ccco1)N1CCN(Cc2cnc3n2CCOC3)CC1
Second: CN(C)C(=O)N1CC[C@@]2(O)CCN(Cc3ccc(C4CCCC4)s3)C[C@H]2C1
The Z score of the first is lower: 0.2 for the first, 1.22 for the second.

Compared with `CCCc1nc(C)c(CNC(=O)Nc2cccc(CN)c2)s1`, `CCC(CC)NC(=O)[C@H]1CC(=O)N(CCc2c[nH]c3ccc(C)cc23)C1` is higher in Z score: 0.44 for the first, 2.01 for the second.

First: FC(F)(F)c1ccc(N[C@H]2CCc3[nH]ncc3C2)nc1
Second: O=C(CC(F)(F)F)N1CCC[C@H](Oc2ncccn2)C1
The Z score of the first is higher: 1.61 for the first, -1.95 for the second.

Going from `Nc1cc(-c2cc3ccccc3o2)ccn1` to `CC1CC(NC(=O)c2ccc(Oc3ccccc3)cc2)CC(C)(C)C1` (centres undefined), the Z score rises from -0.44 to 1.23.

Going from `CNC(=O)c1cc(Cl)cc(F)c1N` to `Cc1cccc(C(=O)Nc2ccccc2C(=O)OCc2ccc(S(=O)(=O)c3ccccc3)cc2)c1`, the Z score falls from 1.14 to 0.34.

Going from `O=C(CCCc1ccccc1)[C@H]1CCCNC1` to `Cc1cc(-n2nc(C)cc2NS(=O)(=O)c2cccc(C(C)C)c2)nc(C)n1`, the Z score falls from -0.73 to -2.93.
